In the supplement of paper PMC8728848:
The list shows a part of the results.

Assays:
Assay in all cases: glycan array binding signal (z-score within array); higher = stronger binding
Details in all cases: glycan notation: IUPAC condensed, linker removed
[1] = biological target: Gal(b1-3)[Neu5Ac(a2-6)]GalNAc
In short: (§1)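 Glycan array data came from 3228 arrays in the Consortium for Functional Glycomics database, and only arrays with an available protein sequence were kept. Glycan names were put into IUPAC-condensed notation, and columns mapping to the same glycan were averaged. The binding signal is a within-array Z-score, averaged across arrays of one protein sequence run at different concentrations or buffers and across linkers. A negative Z-score can be read as non-binding.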

[2] = biological target: Gal(b1-3)[Neu5Ac(a2-6)]GlcNAc
In short: as §1

[3] = biological target: Gal(b1-3)[Neu5Ac(a2-6)]GlcNAc(a1-4)Gal(b1-4)Glc
In short: as §1

[4] = biological target: Gal(b1-3)[Neu5Ac(b2-6)]GlcNAc
In short: as §1

[5] = biological target: Gal(b1-4)GalNAc(a1-3)[Fuc(a1-2)]Gal(b1-4)GlcNAc
In short: as §1

[6] = biological target: Gal(b1-4)GalNAc(b1-3)[Fuc(a1-2)]Gal(b1-4)GlcNAc
In short: as §1

[7] = biological target: Gal(b1-4)Glc
In short: as §1

[8] = biological target: Gal(b1-4)Glc6S
In short: as §1

[9] = biological target: Gal(b1-4)GlcNAc
In short: as §1

[10] = biological target: Gal(b1-4)GlcNAc(b1-2)Man(a1-3)[Gal(b1-4)GlcNAc(b1-2)Man(a1-6)]Man(b1-4)GlcNAc(b1-4)GlcNAc
In short: as §1

[11] = biological target: Gal(b1-4)GlcNAc(b1-3)Gal(b1-4)Glc
In short: as §1

[12] = biological target: Gal(b1-4)GlcNAc(b1-3)Gal(b1-4)GlcNAc
In short: as §1

[13] = biological target: Gal(b1-4)GlcNAc(b1-3)Gal(b1-4)GlcNAc(b1-3)Gal(b1-4)GlcNAc
In short: as §1

[14] = biological target: Gal(b1-4)GlcNAc(b1-3)Gal(b1-4)[Fuc(a1-3)]GlcNAc(b1-3)Gal(b1-4)[Fuc(a1-3)]GlcNAc
In short: as §1

[15] = biological target: Gal(b1-4)GlcNAc(b1-3)GalNAc
In short: as §1

[16] = biological target: Gal(b1-4)GlcNAc(b1-3)[Gal(b1-4)GlcNAc(b1-6)]GalNAc
In short: as §1

[17] = biological target: Gal(b1-4)GlcNAc(b1-6)GalNAc
In short: as §1

[18] = biological target: Gal(b1-4)GlcNAc(b1-6)[Gal(b1-3)]GalNAc
In short: as §1

[19] = biological target: Gal(b1-4)GlcNAc(b1-6)[Gal(b1-3)]GlcNAc
In short: as §1

[20] = biological target: Gal3S(b1-3)GalNAc
In short: as §1

[21] = biological target: Gal3S(b1-3)GlcNAc
In short: as §1

[22] = biological target: Gal3S(b1-3)[Fuc(a1-4)]GlcNAc
In short: as §1

[23] = biological target: Gal3S(b1-4)Glc
In short: as §1

[24] = biological target: Gal3S(b1-4)Glc6S
In short: as §1

[25] = biological target: Gal3S(b1-4)GlcNAc
In short: as §1

[26] = biological target: Gal3S(b1-4)GlcNAc6S
In short: as §1

[27] = biological target: Gal3S6S(b1-4)GlcNAc
In short: as §1

[28] = biological target: Gal3S6S(b1-4)GlcNAc6S
In short: as §1

[29] = biological target: Gal4S(b1-4)GlcNAc
In short: as §1

[30] = biological target: Gal4S6S(b1-4)GlcNAc
In short: as §1

[31] = biological target: Gal6S(b1-4)Glc
In short: as §1

[32] = biological target: Gal6S(b1-4)Glc6S
In short: as §1

[33] = biological target: Gal6S(b1-4)GlcNAc
In short: as §1

[34] = biological target: GalNAc(a1-3)Gal
In short: as §1

[35] = biological target: GalNAc(a1-3)GalNAc
In short: as §1

[36] = biological target: GalNAc(b1-3)Gal(a1-4)Gal(b1-4)GlcNAc
In short: as §1

[37] = biological target: GalNAc(b1-4)GlcNAc
In short: as §1

[38] = biological target: Glc(a1-4)Glc
In short: as §1

[39] = biological target: Glc(a1-6)Glc(a1-6)Glc
In short: as §1

[40] = biological target: Glc(b1-4)Glc
In short: as §1

[41] = biological target: Glc(b1-6)Glc
In short: as §1

[42] = biological target: GlcA(b1-3)Gal
In short: as §1

[43] = biological target: GlcA(b1-6)Gal
In short: as §1

[44] = biological target: GlcNAc(a1-3)Gal(b1-4)GlcNAc
In short: as §1

[45] = biological target: GlcNAc(a1-6)Gal(b1-4)GlcNAc
In short: as §1

[46] = biological target: GlcNAc(b1-2)Gal(b1-3)GlcNAc
In short: as §1

[47] = biological target: GlcNAc(b1-2)Man(a1-3)[GlcNAc(b1-2)Man(a1-6)]Man(b1-4)GlcNAc(b1-4)GlcNAc
In short: as §1

[48] = biological target: GlcNAc(b1-3)Gal
In short: as §1

[49] = biological target: GlcNAc(b1-3)Gal(b1-3)GalNAc
In short: as §1

[50] = biological target: GlcNAc(b1-3)Gal(b1-4)Glc
In short: as §1

[51] = biological target: GlcNAc(b1-3)Gal(b1-4)GlcNAc
In short: as §1

[52] = biological target: GlcNAc(b1-3)Gal(b1-4)GlcNAc(b1-3)Gal(b1-4)GlcNAc
In short: as §1

[53] = biological target: GlcNAc(b1-3)GalNAc
In short: as §1

[54] = biological target: GlcNAc(b1-3)[GlcNAc(b1-4)][GlcNAc(b1-6)]GlcNAc
In short: as §1

[55] = biological target: GlcNAc(b1-3)[GlcNAc(b1-6)]Gal(b1-4)GlcNAc
In short: as §1

[56] = biological target: GlcNAc(b1-3)[GlcNAc(b1-6)]GlcNAc
In short: as §1

[57] = biological target: GlcNAc(b1-4)Gal(b1-4)GlcNAc
In short: as §1

[58] = biological target: GlcNAc(b1-4)GlcNAc(b1-4)GlcNAc
In short: as §1

[59] = biological target: GlcNAc(b1-4)GlcNAc(b1-4)GlcNAc(b1-4)GlcNAc(b1-4)GlcNAc
In short: as §1

[60] = biological target: GlcNAc(b1-4)GlcNAc(b1-4)GlcNAc(b1-4)GlcNAc(b1-4)GlcNAc(b1-4)GlcNAc
In short: as §1

[61] = biological target: GlcNAc(b1-4)[GlcNAc(b1-6)]GalNAc
In short: as §1

[62] = biological target: GlcNAc(b1-6)Gal(b1-4)GlcNAc
In short: as §1

[63] = biological target: GlcNAc(b1-6)GalNAc
In short: as §1

[64] = biological target: Kdn(a2-3)Gal(b1-3)GlcNAc
In short: as §1

B1: EcCDA (Encephalitazoon cuniculi), Q8SU65 (protein)
chain: MLLCLLYFTSSWCSGSDVPDVCTNSGMIAINFVDGPVRGVTDRILNTLDELGVKATFSFTVNQKAVGNVGQLYRRAVEEGHNVALRVDPSMDEGYQCLSQDALENNVDREIDTIDGLSGTEIRYAAVPICNGQVNSEMYNILTERGVLPVGYTFCPYDYDDPVGEFESMIEGSDPKHHSFIILMHDGQEADTSRLENMVKIGKDKGYRFVNMDECLQGYKGAPGDPELSLRGKGVESIGKGFLPFFLMMLVRLL
- glycan array binding signal (z-score) [1]: -0.083
- glycan array binding signal (z-score) [2]: -0.012
- glycan array binding signal (z-score) [3]: -0.44
- glycan array binding signal (z-score) [4]: -0.401
- glycan array binding signal (z-score) [5]: 1.01
- glycan array binding signal (z-score) [6]: 0.124
- glycan array binding signal (z-score) [7]: -0.332
- glycan array binding signal (z-score) [8]: -0.35
- glycan array binding signal (z-score) [9]: 0.097
- glycan array binding signal (z-score) [10]: 1.57
- glycan array binding signal (z-score) [11]: -0.394
- glycan array binding signal (z-score) [12]: -0.244
- glycan array binding signal (z-score) [13]: -0.411
- glycan array binding signal (z-score) [14]: 0.385
- glycan array binding signal (z-score) [15]: -0.319
- glycan array binding signal (z-score) [16]: -0.371
- glycan array binding signal (z-score) [17]: -0.303
- glycan array binding signal (z-score) [18]: -0.1
- glycan array binding signal (z-score) [19]: -0.237
- glycan array binding signal (z-score) [20]: 0.115
- glycan array binding signal (z-score) [21]: -0.237
- glycan array binding signal (z-score) [22]: -0.196
- glycan array binding signal (z-score) [23]: 0.022
- glycan array binding signal (z-score) [24]: 5.58
- glycan array binding signal (z-score) [25]: 0.171
- glycan array binding signal (z-score) [26]: -0.289
- glycan array binding signal (z-score) [27]: -0.044
- glycan array binding signal (z-score) [28]: -0.295
- glycan array binding signal (z-score) [29]: -0.202
- glycan array binding signal (z-score) [30]: -0.213
- glycan array binding signal (z-score) [31]: 0.56
- glycan array binding signal (z-score) [32]: 0.182
- glycan array binding signal (z-score) [33]: -0.092
- glycan array binding signal (z-score) [34]: -0.277
- glycan array binding signal (z-score) [35]: -0.238
- glycan array binding signal (z-score) [36]: 1.6
- glycan array binding signal (z-score) [37]: -0.289
- glycan array binding signal (z-score) [38]: -0.197
- glycan array binding signal (z-score) [39]: -0.126
- glycan array binding signal (z-score) [40]: -0.417
- glycan array binding signal (z-score) [41]: -0.497
- glycan array binding signal (z-score) [42]: -0.333
- glycan array binding signal (z-score) [43]: -0.32
- glycan array binding signal (z-score) [44]: -0.454
- glycan array binding signal (z-score) [45]: -0.33
- glycan array binding signal (z-score) [46]: -0.418
- glycan array binding signal (z-score) [47]: -0.153
- glycan array binding signal (z-score) [48]: -0.494
- glycan array binding signal (z-score) [49]: 2.65
- glycan array binding signal (z-score) [50]: -0.339
- glycan array binding signal (z-score) [51]: -0.412
- glycan array binding signal (z-score) [52]: 0.29
- glycan array binding signal (z-score) [53]: -0.163
- glycan array binding signal (z-score) [54]: -0.197
- glycan array binding signal (z-score) [55]: -0.236
- glycan array binding signal (z-score) [56]: -0.011
- glycan array binding signal (z-score) [57]: 1.2
- glycan array binding signal (z-score) [58]: -0.023
- glycan array binding signal (z-score) [59]: -0.33
- glycan array binding signal (z-score) [60]: -0.405
- glycan array binding signal (z-score) [61]: -0.36
- glycan array binding signal (z-score) [62]: -0.261
- glycan array binding signal (z-score) [63]: -0.364
- glycan array binding signal (z-score) [64]: -0.375
